{
  "source": "paper PMC7819943",
  "about": "“Rice protein-binding microarrays: a tool to detect cis-acting elements near promoter regions in rice”",
  "note": "The other results are listed elsewhere or left out.",
  "data": [
    {"target": "T1, OsWOX13 (Oryza sativa, UniProt Q5QMM3 1-267)", "T1 sequence": "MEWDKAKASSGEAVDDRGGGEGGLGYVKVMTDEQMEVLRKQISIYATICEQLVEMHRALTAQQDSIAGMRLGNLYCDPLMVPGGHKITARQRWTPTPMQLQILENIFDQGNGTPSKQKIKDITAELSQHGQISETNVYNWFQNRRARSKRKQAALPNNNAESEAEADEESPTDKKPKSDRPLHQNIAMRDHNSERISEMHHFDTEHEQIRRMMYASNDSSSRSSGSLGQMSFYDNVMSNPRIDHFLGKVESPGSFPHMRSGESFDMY", "assay": "protein-binding microarray (RPBM); PBS, 2% BSA, 51.3 ng/ul salmon testes DNA, 50 uM zinc acetate, 200 nM TF, 25 C, 1 h; high values mean tight binding", "settings": "protein: recombinant; tags: N-terminal polyhistidine and DsRed monomer fusion (pET32a); label: CyDye5-dUTP incorporated in the synthesized complementary strand; 3' TTTTT single-stranded linker to array surface; dsDNA, one strand shown", "outline": "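For the binding signal, per-feature fluorescence intensity was read in arbitrary units on an Axon 4000B scanner. Before scanning, a 2% BSA-blocked custom Agilent array made double-stranded with Cy5-dUTP was washed after 1 h at 25 °C with 200 nM protein and 50 µM zinc acetate. The proteins were Ni–NTA-purified transcription factors with N-terminal polyhistidine and DsRed fusions, expressed in E. coli BL21-CodonPlus.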", "values": [
      {"sequence": "CAACATAATTCTAAATTTTGCAATAACTTTACAAAACTACCGGAGTCACCTAGTGCAG", "binding signal": "4750 fluorescence intensity (a.u.)"},
      {"sequence": "TTCGAAATTAGTAATTACCAAGTATTATTTTATTCTAAGACGGAGTCACCTAGTGCAG", "binding signal": "15600 fluorescence intensity (a.u.)"},
      {"sequence": "AAACTAAATTTAGACAGGAGTTCAGGTGATGAGTCAATGGCGGAGTCACCTAGTGCAG", "binding signal": "36800 fluorescence intensity (a.u.)"},
      {"sequence": "ACATTGACACCAATCTTGAACATAATAGCGCATTACAGTACGGAGTCACCTAGTGCAG", "binding signal": "7300 fluorescence intensity (a.u.)"},
      {"sequence": "CTTTGGTTAATTGTCGTCTTCTTCTCTCTCTCTGCATCCACGGAGTCACCTAGTGCAG", "binding signal": "10200 fluorescence intensity (a.u.)"},
      {"sequence": "ATAAATCAAAATTTAAACATGATAAGAGGTCATCAATAGACGGAGTCACCTAGTGCAG", "binding signal": "4780 fluorescence intensity (a.u.)"},
      {"sequence": "CTATAATTTATTTTATTTTATTATTAGTATAAATTTAATACGGAGTCACCTAGTGCAG", "binding signal": "5450 fluorescence intensity (a.u.)"},
      {"sequence": "TTCTAACTGCTCCTAATTGATTATGCAACTACACCATCTTCGGAGTCACCTAGTGCAG", "binding signal": "40500 fluorescence intensity (a.u.)"},
      {"sequence": "CTGTTACTGTTGATTTAGCGCGTTTTGCCTGTATAAATTTCGGAGTCACCTAGTGCAG", "binding signal": "5630 fluorescence intensity (a.u.)"},
      {"sequence": "AGATGATAGGTATCTTTGTGCTGTTATCAGCTGGAAGTTCCGGAGTCACCTAGTGCAG", "binding signal": "7000 fluorescence intensity (a.u.)"},
      {"sequence": "CCTGTTGTTTAATTATTGTTATGGATAAACAAATGGGCTGCGGAGTCACCTAGTGCAG", "binding signal": "5570 fluorescence intensity (a.u.)"},
      {"sequence": "TAGAAGATAGATTGATTGATTGATATATACTATCTCTATACGGAGTCACCTAGTGCAG", "binding signal": "52600 fluorescence intensity (a.u.)"},
      {"sequence": "AATAAATTAAGTTCAGTTGTCAATTGAAAACAACAAAATTCGGAGTCACCTAGTGCAG", "binding signal": "5330 fluorescence intensity (a.u.)"},
      {"sequence": "CAATTAATTAAGTACGTGGACGTACTGTCTTAATTGAACGCGGAGTCACCTAGTGCAG", "binding signal": "20800 fluorescence intensity (a.u.)"},
      {"sequence": "ATGAATTGATTCACTCGCGAGATGACGTGGATGTTTCACCCGGAGTCACCTAGTGCAG", "binding signal": "19800 fluorescence intensity (a.u.)"},
      {"sequence": "TTTAAATAGATGAATAGTAATAGTATATTTCCAAACTGTGCGGAGTCACCTAGTGCAG", "binding signal": "22900 fluorescence intensity (a.u.)"},
      {"sequence": "ACTCCGGTTCTCAATCAACTCCAAGTTAGTACATTCCAACCGGAGTCACCTAGTGCAG", "binding signal": "10300 fluorescence intensity (a.u.)"},
      {"sequence": "CAAGGAGTCCAATTGATTTACAGGGTTTTATCTTTCCCCTCGGAGTCACCTAGTGCAG", "binding signal": "3400 fluorescence intensity (a.u.)"},
      {"sequence": "ATATGATTAAACTCAAGTATAGTTGAGGGACGTAAATTGGCGGAGTCACCTAGTGCAG", "binding signal": "19700 fluorescence intensity (a.u.)"},
      {"sequence": "GATAATAGATAATAGATAGATTGAAGATTAGGAAAGGGAACGGAGTCACCTAGTGCAG", "binding signal": "54800 fluorescence intensity (a.u.)"},
      {"sequence": "AATTAATCATGCGTTAATGGACCGTTCCGTTTTCCGTGTTCGGAGTCACCTAGTGCAG", "binding signal": "20900 fluorescence intensity (a.u.)"},
      {"sequence": "ATGCTCACCTTGCAATAATCAATCAACCTAAGTTGAAGAACGGAGTCACCTAGTGCAG", "binding signal": "5160 fluorescence intensity (a.u.)"},
      {"sequence": "AACTAATCCATGATTAGCCATAAATGCTACAGTAACCCACCGGAGTCACCTAGTGCAG", "binding signal": "10800 fluorescence intensity (a.u.)"},
      {"sequence": "GTAATCTAAAGACGTTTGGATTGATGAATGAAACAAATGTCGGAGTCACCTAGTGCAG", "binding signal": "5790 fluorescence intensity (a.u.)"},
      {"sequence": "GGTGAAATCAATCCCCATGTCCCCACCCTCTGTGTAGCGGCGGAGTCACCTAGTGCAG", "binding signal": "3210 fluorescence intensity (a.u.)"},
      {"sequence": "GATACAATCTGTTAGACGTGACAGTCATCTCTAATGGACACGGAGTCACCTAGTGCAG", "binding signal": "8880 fluorescence intensity (a.u.)"},
      {"sequence": "AATTAATTGAACAGGCTGTTGGGCAGTGGCCTTCGGGAGACGGAGTCACCTAGTGCAG", "binding signal": "44200 fluorescence intensity (a.u.)"},
      {"sequence": "ATGAGTATTAATTATTTTAAATTTCAAAATGAACTAATATCGGAGTCACCTAGTGCAG", "binding signal": "9270 fluorescence intensity (a.u.)"},
      {"sequence": "GGGGAACACATTAGTTGTCAATCATCTCATCAGGTGGAGCCGGAGTCACCTAGTGCAG", "binding signal": "17100 fluorescence intensity (a.u.)"},
      {"sequence": "GAACGGTCCATTAGCGCGTGATTAATTAAGTATTAGCTAACGGAGTCACCTAGTGCAG", "binding signal": "17300 fluorescence intensity (a.u.)"},
      {"sequence": "ATCTTTAATAGATAGGGATTATCACTGGATAGGCCCGATTCGGAGTCACCTAGTGCAG", "binding signal": "17800 fluorescence intensity (a.u.)"},
      {"sequence": "CAATCAATCTTCTTCATTCTGGCAGGTTATATATACAATCCGGAGTCACCTAGTGCAG", "binding signal": "6640 fluorescence intensity (a.u.)"},
      {"sequence": "TTTAATTATAACAAATTCAACGATATAATTAGTTTGAAATCGGAGTCACCTAGTGCAG", "binding signal": "19200 fluorescence intensity (a.u.)"},
      {"sequence": "GCGTATGATTTGCTGAAATGATAACGGATAAGTTTTAGATCGGAGTCACCTAGTGCAG", "binding signal": "19400 fluorescence intensity (a.u.)"},
      {"sequence": "GCCATGATGATTTTGACGTCAAAGCCATCGAGTTAATTAGCGGAGTCACCTAGTGCAG", "binding signal": "14900 fluorescence intensity (a.u.)"},
      {"sequence": "GACTCTAATTTAGTGATTGCTTCATGCCACGAATTATATTCGGAGTCACCTAGTGCAG", "binding signal": "13300 fluorescence intensity (a.u.)"},
      {"sequence": "GTATTAATTTCTGACAAGTACATGCGGCCTGGTGATATAACGGAGTCACCTAGTGCAG", "binding signal": "6390 fluorescence intensity (a.u.)"},
      {"sequence": "TTTTGATAACTCCATTGACACAATTAAGCTAGGGGAAATTCGGAGTCACCTAGTGCAG", "binding signal": "5600 fluorescence intensity (a.u.)"},
      {"sequence": "ACAATACTATAATTGGTATCAAAACTTAGCTAGTTCAGCACGGAGTCACCTAGTGCAG", "binding signal": "8940 fluorescence intensity (a.u.)"},
      {"sequence": "GAATCAAATTACACTGATATTAACGTTTAAGAGTCAAGATCGGAGTCACCTAGTGCAG", "binding signal": "4690 fluorescence intensity (a.u.)"},
      {"sequence": "ACACATCTCATCAATTTATCGTCATCATCGCAAACTTAACCGGAGTCACCTAGTGCAG", "binding signal": "9520 fluorescence intensity (a.u.)"},
      {"sequence": "GTCCGTGCCCTAATTGTGTTATCTTCTGTAACTGATAGCACGGAGTCACCTAGTGCAG", "binding signal": "5230 fluorescence intensity (a.u.)"},
      {"sequence": "TCGGGTGACTGGTTTTGTATAGTTAAGGGACCCTGCATATCGGAGTCACCTAGTGCAG", "binding signal": "3630 fluorescence intensity (a.u.)"},
      {"sequence": "ACCCCAATCATCAGGCCAGAGACTGGCTCAACAAGATAGCCGGAGTCACCTAGTGCAG", "binding signal": "10100 fluorescence intensity (a.u.)"},
      {"sequence": "TTGATGGAAATGATTGAAGAAATATTGCGATTTATCGAGACGGAGTCACCTAGTGCAG", "binding signal": "26200 fluorescence intensity (a.u.)"},
      {"sequence": "ACTCATTTACTGTTTGATGAAATCTGTCATAGTTTCATGACGGAGTCACCTAGTGCAG", "binding signal": "5200 fluorescence intensity (a.u.)"},
      {"sequence": "GGTGACAACGAGGGCTAATTGAAGCCTGTCACTGTACGCGCGGAGTCACCTAGTGCAG", "binding signal": "20600 fluorescence intensity (a.u.)"},
      {"sequence": "TTATACCTGATTGCAGTATGATTTGCCTCCCTTCTGTCGACGGAGTCACCTAGTGCAG", "binding signal": "31900 fluorescence intensity (a.u.)"},
      {"sequence": "CATAATTTGTGCTAAGTGCTAACAGTCTTCATTTGTTTTCCGGAGTCACCTAGTGCAG", "binding signal": "21000 fluorescence intensity (a.u.)"},
      {"sequence": "AATTCAAAATTTAACTATGACAGATGAGAATACAAATCATCGGAGTCACCTAGTGCAG", "binding signal": "6580 fluorescence intensity (a.u.)"},
      {"sequence": "TTAATTAGCATGTCAAGAGATTAATTAAAGGTTCAACTAGCGGAGTCACCTAGTGCAG", "binding signal": "24800 fluorescence intensity (a.u.)"},
      {"sequence": "TGGCTAATCATGGTCTAATTATGCTCAAAAGATTCGTCTCCGGAGTCACCTAGTGCAG", "binding signal": "38000 fluorescence intensity (a.u.)"},
      {"sequence": "TGACATGATTAGAGGTGTTAATTGGATAAAACAACTGCGTCGGAGTCACCTAGTGCAG", "binding signal": "35500 fluorescence intensity (a.u.)"},
      {"sequence": "TTTATGAGTGACCAAATAATTGATCATAATTTCCAGAAATCGGAGTCACCTAGTGCAG", "binding signal": "12100 fluorescence intensity (a.u.)"}
    ]}
  ]
}
